# Results as given in publication PMC12820563, “FoxP3 forms a head-to-head dimer in vivo and stabilizes its multimerization on adjacent microsatellites”.
# The list shows a part of the results.
# Molecular target: T1, MBP-FoxP1dN (Mus musculus, UniProt P58462 326-579)
# T1 sequence: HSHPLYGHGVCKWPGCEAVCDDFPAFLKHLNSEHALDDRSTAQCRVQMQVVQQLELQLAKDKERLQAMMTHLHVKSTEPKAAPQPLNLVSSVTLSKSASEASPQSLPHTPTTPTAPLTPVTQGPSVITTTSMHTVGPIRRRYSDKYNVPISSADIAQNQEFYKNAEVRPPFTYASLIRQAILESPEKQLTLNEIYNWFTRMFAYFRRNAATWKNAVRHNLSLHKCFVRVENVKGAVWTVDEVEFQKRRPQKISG
# Test: PD-seq (MBP pull-down with sequencing); 20 mM Tris-HCl pH 7.5, 100 mM NaCl, 1.5 mM MgCl2, 0.4 uM protein, 0.1 uM dsDNA library, 30 min, room temperature, amylose pull-down; high values mean tight binding
# Details: protein: recombinant; tags: His6-MBP; chain copies: 2; dsDNA, one strand shown
# How it was run: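 Binding is the reads-per-million enrichment of pull-down relative to input, pooled across replicates. For this, 0.4 µM His6-MBP-tagged mouse FoxP3 or FoxP1 fragment lacking the N-terminus, made in E. coli, was incubated with 0.1 µM Klenow-filled double-stranded degenerate DNA library for 30 min at room temperature in Tris pH 7.5 buffer with NaCl and MgCl2. Complexes bound to amylose resin were washed three times before proteinase K released the DNA for PCR barcoding and Illumina sequencing.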
row,Sequence,binding signal
1,GATGATTGTTCTCCCAGCTGATGAATTGAACTTTTCGAGTAAACAAATTTTCCTAATCTTTCTGTTCAAGCGCCATCTAC,0.887 RPM ratio (pull-down/input)
2,GATGATTGTTCTCCCAGCTGATGAATTTGGCAGGTCGAGTAAACAAATTTTCCTAATCTTTCTGTTCAAGCGCCATCTAC,0.753 RPM ratio (pull-down/input)
3,GATGATTGTTCTCCCAGCTGATGAATTCCAACACTCGAGTAAACAAATTTTCCTAATCTTTCTGTTCAAGCGCCATCTAC,0.916 RPM ratio (pull-down/input)
4,GATGATTGTTCTCCCAGCTGATGAATTGGGATTATCGAGTAAACAAATTTTCCTAATCTTTCTGTTCAAGCGCCATCTAC,0.952 RPM ratio (pull-down/input)
5,GATGATTGTTCTCCCAGCTGATGAATTTGGAGACTCGAGTAAACAAATTTTCCTAATCTTTCTGTTCAAGCGCCATCTAC,0.799 RPM ratio (pull-down/input)
6,GATGATTGTTCTCCCAGCTGATGAATTTGAATCCTCGAGTAAACAAATTTTCCTAATCTTTCTGTTCAAGCGCCATCTAC,0.822 RPM ratio (pull-down/input)
7,GATGATTGTTCTCCCAGCTGATGAATTGATGCTATCGAGTAAACAAATTTTCCTAATCTTTCTGTTCAAGCGCCATCTAC,1.5 RPM ratio (pull-down/input)
8,GATGATTGTTCTCCCAGCTGATGAATTGAGGAGCTCGAGTAAACAAATTTTCCTAATCTTTCTGTTCAAGCGCCATCTAC,0.714 RPM ratio (pull-down/input)
9,GATGATTGTTCTCCCAGCTGATGAATTGTAGCGCTCGAGTAAACAAATTTTCCTAATCTTTCTGTTCAAGCGCCATCTAC,0.917 RPM ratio (pull-down/input)
10,GATGATTGTTCTCCCAGCTGATGAATTGTAGCTGTCGAGTAAACAAATTTTCCTAATCTTTCTGTTCAAGCGCCATCTAC,0.906 RPM ratio (pull-down/input)
11,GATGATTGTTCTCCCAGCTGATGAATTAGCGCCCTCGAGTAAACAAATTTTCCTAATCTTTCTGTTCAAGCGCCATCTAC,0.851 RPM ratio (pull-down/input)
12,GATGATTGTTCTCCCAGCTGATGAATTTTGTGCCTCGAGTAAACAAATTTTCCTAATCTTTCTGTTCAAGCGCCATCTAC,1.06 RPM ratio (pull-down/input)
13,GATGATTGTTCTCCCAGCTGATGAATTTAGCTGATCGAGTAAACAAATTTTCCTAATCTTTCTGTTCAAGCGCCATCTAC,0.957 RPM ratio (pull-down/input)
14,GATGATTGTTCTCCCAGCTGATGAATTAGGCTGGTCGAGTAAACAAATTTTCCTAATCTTTCTGTTCAAGCGCCATCTAC,0.867 RPM ratio (pull-down/input)
15,GATGATTGTTCTCCCAGCTGATGAATTAAAAATGTCGAGTAAACAAATTTTCCTAATCTTTCTGTTCAAGCGCCATCTAC,0.979 RPM ratio (pull-down/input)
16,GATGATTGTTCTCCCAGCTGATGAATTGCTGCTCTCGAGTAAACAAATTTTCCTAATCTTTCTGTTCAAGCGCCATCTAC,0.964 RPM ratio (pull-down/input)
17,GATGATTGTTCTCCCAGCTGATGAATTTAGAGACTCGAGTAAACAAATTTTCCTAATCTTTCTGTTCAAGCGCCATCTAC,0.958 RPM ratio (pull-down/input)
18,GATGATTGTTCTCCCAGCTGATGAATTGTCACGGTCGAGTAAACAAATTTTCCTAATCTTTCTGTTCAAGCGCCATCTAC,0.924 RPM ratio (pull-down/input)
19,GATGATTGTTCTCCCAGCTGATGAATTTTAATATTCGAGTAAACAAATTTTCCTAATCTTTCTGTTCAAGCGCCATCTAC,1.14 RPM ratio (pull-down/input)
20,GATGATTGTTCTCCCAGCTGATGAATTAAGGTCTTCGAGTAAACAAATTTTCCTAATCTTTCTGTTCAAGCGCCATCTAC,0.841 RPM ratio (pull-down/input)
21,GATGATTGTTCTCCCAGCTGATGAATTGTTACAGTCGAGTAAACAAATTTTCCTAATCTTTCTGTTCAAGCGCCATCTAC,1.24 RPM ratio (pull-down/input)

row,Sequence,binding signal
1,GATGATTGTTCTCCCAGCTGATGAATTCACGGCTTCGAGTAAACAAATTTTCCTAATCTTTCTGTTCAAGCGCCATCTAC,0.796 RPM ratio (pull-down/input)
2,GATGATTGTTCTCCCAGCTGATGAATTGTCATCATCGAGTAAACAAATTTTCCTAATCTTTCTGTTCAAGCGCCATCTAC,1.34 RPM ratio (pull-down/input)
3,GATGATTGTTCTCCCAGCTGATGAATTGGGTCATTCGAGTAAACAAATTTTCCTAATCTTTCTGTTCAAGCGCCATCTAC,0.917 RPM ratio (pull-down/input)
4,GATGATTGTTCTCCCAGCTGATGAATTGACATGATCGAGTAAACAAATTTTCCTAATCTTTCTGTTCAAGCGCCATCTAC,1.33 RPM ratio (pull-down/input)
5,GATGATTGTTCTCCCAGCTGATGAATTCTCGTGCTCGAGTAAACAAATTTTCCTAATCTTTCTGTTCAAGCGCCATCTAC,0.83 RPM ratio (pull-down/input)
6,GATGATTGTTCTCCCAGCTGATGAATTCATAAACTCGAGTAAACAAATTTTCCTAATCTTTCTGTTCAAGCGCCATCTAC,1.07 RPM ratio (pull-down/input)
7,GATGATTGTTCTCCCAGCTGATGAATTGTTCAGCTCGAGTAAACAAATTTTCCTAATCTTTCTGTTCAAGCGCCATCTAC,0.958 RPM ratio (pull-down/input)
8,GATGATTGTTCTCCCAGCTGATGAATTATGGAAATCGAGTAAACAAATTTTCCTAATCTTTCTGTTCAAGCGCCATCTAC,1.08 RPM ratio (pull-down/input)
9,GATGATTGTTCTCCCAGCTGATGAATTGGCCTCCTCGAGTAAACAAATTTTCCTAATCTTTCTGTTCAAGCGCCATCTAC,0.815 RPM ratio (pull-down/input)
10,GATGATTGTTCTCCCAGCTGATGAATTTCAAATATCGAGTAAACAAATTTTCCTAATCTTTCTGTTCAAGCGCCATCTAC,0.914 RPM ratio (pull-down/input)
11,GATGATTGTTCTCCCAGCTGATGAATTCTGGAGTTCGAGTAAACAAATTTTCCTAATCTTTCTGTTCAAGCGCCATCTAC,0.784 RPM ratio (pull-down/input)
12,GATGATTGTTCTCCCAGCTGATGAATTAATAAACTCGAGTAAACAAATTTTCCTAATCTTTCTGTTCAAGCGCCATCTAC,1.33 RPM ratio (pull-down/input)
13,GATGATTGTTCTCCCAGCTGATGAATTGGTACGTTCGAGTAAACAAATTTTCCTAATCTTTCTGTTCAAGCGCCATCTAC,0.983 RPM ratio (pull-down/input)
14,GATGATTGTTCTCCCAGCTGATGAATTCAGCTACTCGAGTAAACAAATTTTCCTAATCTTTCTGTTCAAGCGCCATCTAC,0.827 RPM ratio (pull-down/input)
15,GATGATTGTTCTCCCAGCTGATGAATTCTGGAACTCGAGTAAACAAATTTTCCTAATCTTTCTGTTCAAGCGCCATCTAC,0.76 RPM ratio (pull-down/input)
16,GATGATTGTTCTCCCAGCTGATGAATTTTTATTTTCGAGTAAACAAATTTTCCTAATCTTTCTGTTCAAGCGCCATCTAC,2.75 RPM ratio (pull-down/input)
17,GATGATTGTTCTCCCAGCTGATGAATTCTTGACATCGAGTAAACAAATTTTCCTAATCTTTCTGTTCAAGCGCCATCTAC,0.978 RPM ratio (pull-down/input)
18,GATGATTGTTCTCCCAGCTGATGAATTAGAGATGTCGAGTAAACAAATTTTCCTAATCTTTCTGTTCAAGCGCCATCTAC,1 RPM ratio (pull-down/input)
19,GATGATTGTTCTCCCAGCTGATGAATTTGGAGGCTCGAGTAAACAAATTTTCCTAATCTTTCTGTTCAAGCGCCATCTAC,0.932 RPM ratio (pull-down/input)
20,GATGATTGTTCTCCCAGCTGATGAATTGGAGGGCTCGAGTAAACAAATTTTCCTAATCTTTCTGTTCAAGCGCCATCTAC,0.812 RPM ratio (pull-down/input)
21,GATGATTGTTCTCCCAGCTGATGAATTAAGCGAATCGAGTAAACAAATTTTCCTAATCTTTCTGTTCAAGCGCCATCTAC,1.04 RPM ratio (pull-down/input)

row,Sequence,binding signal
1,GATGATTGTTCTCCCAGCTGATGAATTGAAGCTATCGAGTAAACAAATTTTCCTAATCTTTCTGTTCAAGCGCCATCTAC,0.906 RPM ratio (pull-down/input)
2,GATGATTGTTCTCCCAGCTGATGAATTGTCCAGATCGAGTAAACAAATTTTCCTAATCTTTCTGTTCAAGCGCCATCTAC,0.878 RPM ratio (pull-down/input)
3,GATGATTGTTCTCCCAGCTGATGAATTCATACGATCGAGTAAACAAATTTTCCTAATCTTTCTGTTCAAGCGCCATCTAC,0.856 RPM ratio (pull-down/input)
4,GATGATTGTTCTCCCAGCTGATGAATTAGCAGTATCGAGTAAACAAATTTTCCTAATCTTTCTGTTCAAGCGCCATCTAC,1.04 RPM ratio (pull-down/input)
5,GATGATTGTTCTCCCAGCTGATGAATTGCGTACGTCGAGTAAACAAATTTTCCTAATCTTTCTGTTCAAGCGCCATCTAC,1.1 RPM ratio (pull-down/input)
6,GATGATTGTTCTCCCAGCTGATGAATTGGTCCGATCGAGTAAACAAATTTTCCTAATCTTTCTGTTCAAGCGCCATCTAC,0.88 RPM ratio (pull-down/input)
7,GATGATTGTTCTCCCAGCTGATGAATTGTATGTCTCGAGTAAACAAATTTTCCTAATCTTTCTGTTCAAGCGCCATCTAC,1.19 RPM ratio (pull-down/input)
8,GATGATTGTTCTCCCAGCTGATGAATTATCTGACTCGAGTAAACAAATTTTCCTAATCTTTCTGTTCAAGCGCCATCTAC,0.913 RPM ratio (pull-down/input)
9,GATGATTGTTCTCCCAGCTGATGAATTAAAGTCATCGAGTAAACAAATTTTCCTAATCTTTCTGTTCAAGCGCCATCTAC,1.09 RPM ratio (pull-down/input)
10,GATGATTGTTCTCCCAGCTGATGAATTTCGACTATCGAGTAAACAAATTTTCCTAATCTTTCTGTTCAAGCGCCATCTAC,0.919 RPM ratio (pull-down/input)
11,GATGATTGTTCTCCCAGCTGATGAATTGTTATGCTCGAGTAAACAAATTTTCCTAATCTTTCTGTTCAAGCGCCATCTAC,1.55 RPM ratio (pull-down/input)
12,GATGATTGTTCTCCCAGCTGATGAATTAACCCTGTCGAGTAAACAAATTTTCCTAATCTTTCTGTTCAAGCGCCATCTAC,0.839 RPM ratio (pull-down/input)
13,GATGATTGTTCTCCCAGCTGATGAATTAACGGTTTCGAGTAAACAAATTTTCCTAATCTTTCTGTTCAAGCGCCATCTAC,0.872 RPM ratio (pull-down/input)
14,GATGATTGTTCTCCCAGCTGATGAATTGTTGTCGTCGAGTAAACAAATTTTCCTAATCTTTCTGTTCAAGCGCCATCTAC,2.33 RPM ratio (pull-down/input)
15,GATGATTGTTCTCCCAGCTGATGAATTTGGGTCGTCGAGTAAACAAATTTTCCTAATCTTTCTGTTCAAGCGCCATCTAC,0.832 RPM ratio (pull-down/input)
16,GATGATTGTTCTCCCAGCTGATGAATTGTCGCACTCGAGTAAACAAATTTTCCTAATCTTTCTGTTCAAGCGCCATCTAC,1.07 RPM ratio (pull-down/input)
17,GATGATTGTTCTCCCAGCTGATGAATTGAGTTTCTCGAGTAAACAAATTTTCCTAATCTTTCTGTTCAAGCGCCATCTAC,0.825 RPM ratio (pull-down/input)
18,GATGATTGTTCTCCCAGCTGATGAATTCCGAGGCTCGAGTAAACAAATTTTCCTAATCTTTCTGTTCAAGCGCCATCTAC,0.853 RPM ratio (pull-down/input)
19,GATGATTGTTCTCCCAGCTGATGAATTCATAGTTTCGAGTAAACAAATTTTCCTAATCTTTCTGTTCAAGCGCCATCTAC,0.933 RPM ratio (pull-down/input)
20,GATGATTGTTCTCCCAGCTGATGAATTCTTGATCTCGAGTAAACAAATTTTCCTAATCTTTCTGTTCAAGCGCCATCTAC,0.781 RPM ratio (pull-down/input)
21,GATGATTGTTCTCCCAGCTGATGAATTCTTTGGCTCGAGTAAACAAATTTTCCTAATCTTTCTGTTCAAGCGCCATCTAC,0.81 RPM ratio (pull-down/input)
